Laboratory results taken from PubChem BioAssay (Tox21).
Inconclusive means that the source gave no clear call. Such entries were picked first, then a sample of the others. A call without a number means that no potency is given here. For part of these data: Where the call is inconclusive, the potency comes from a doubtful curve fit. Calls of active or inactive are those of the source. Unless noted, calls follow the shape of the dose curve; as a rule, active = well fitted curve in the direction sought with a large enough effect in the repeat runs; inconclusive = weak or mixed curves; inactive = no such curve, though single readings can be large; an effect the other way counts as inactive or inconclusive.

How the values were obtained:
[1] = qHTS assay to identify small molecule antagonists of the estrogen receptor beta (ER-beta) signaling pathway - cell viability counter screen (AID 1259382); also: nearly all actives have a fitted effect of over 55% in size; also: potency is read from the fitted curve at half-maximal effect
Procedure, shortened: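 Agonist-stimulated (1nM E2) ER-beta-UAS-bla HEK293T cells are incubated with library compounds for 16 hr at 37C. Cell viability is then assessed in the reporter-assay wells by adding CellTiter-Glo and reading luminescence after 30 min.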

[2] = target: Glucocorticoid receptor (Homo sapiens) (UniProt P04150); assay: qHTS assay to identify small molecule agonists of the glucocorticoid receptor (GR) signaling pathway (AID 720691; active = well fitted activation curve with a large enough effect in the signal ratio in the repeat runs, not every such curve was filed as active; inconclusive = weak or mixed curves, or effect the other way; inactive = no such curve, though single readings can be large or run the other way; the % refers to the signal ratio; also: potency is read from the fitted curve at half-maximal effect); conditions: GR-bla HeLa, beta-lactamase reporter ratio, 18 h; activation: at 62.4 µM (top of the series) unless noted
UniProt P04150, sequence (P04150 whole entry, looked up): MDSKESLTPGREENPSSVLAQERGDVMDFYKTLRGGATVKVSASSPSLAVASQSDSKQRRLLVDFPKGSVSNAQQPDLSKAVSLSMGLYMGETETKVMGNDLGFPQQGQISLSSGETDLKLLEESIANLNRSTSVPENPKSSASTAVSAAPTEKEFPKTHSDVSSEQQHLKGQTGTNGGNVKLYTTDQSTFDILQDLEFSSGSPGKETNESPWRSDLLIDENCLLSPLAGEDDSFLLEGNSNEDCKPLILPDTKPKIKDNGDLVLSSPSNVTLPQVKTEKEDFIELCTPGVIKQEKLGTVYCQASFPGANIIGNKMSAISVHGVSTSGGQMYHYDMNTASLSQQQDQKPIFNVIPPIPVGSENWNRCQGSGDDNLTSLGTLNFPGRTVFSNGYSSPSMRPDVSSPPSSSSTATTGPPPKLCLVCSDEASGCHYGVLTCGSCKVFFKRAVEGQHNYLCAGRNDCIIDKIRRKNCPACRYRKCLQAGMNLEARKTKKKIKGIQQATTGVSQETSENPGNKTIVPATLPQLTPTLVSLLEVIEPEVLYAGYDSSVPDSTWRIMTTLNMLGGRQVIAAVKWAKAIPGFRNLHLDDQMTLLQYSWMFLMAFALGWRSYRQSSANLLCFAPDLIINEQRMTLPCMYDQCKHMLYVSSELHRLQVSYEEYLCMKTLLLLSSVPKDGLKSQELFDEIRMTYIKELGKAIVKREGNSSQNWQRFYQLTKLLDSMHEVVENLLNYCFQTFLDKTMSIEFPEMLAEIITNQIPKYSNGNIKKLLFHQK
Procedure, shortened: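 Reporter read-out: fluorescence intensity following 2 h room-temperature LiveBLAzer B/G FRET substrate loading. Prior step: GR-bla HeLa cells held 4 h, then treated 18 h at 37 C.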

[3] = target: Estrogen receptor (Homo sapiens) (UniProt P03372); assay: qHTS assay to identify small molecule agonists of the estrogen receptor alpha (ER-alpha) signaling pathway (AID 743075; calls by dose curve;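 also: HEK293 GripTite cells with ER-alpha and UAS-driven beta-lactamase reporter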); conditions: HEK293 ER-alpha-UAS-bla, beta-lactamase FRET ratio, 18 h; activation: at 70.1 µM (top of the series)
UniProt P03372, sequence (P03372 whole entry, looked up): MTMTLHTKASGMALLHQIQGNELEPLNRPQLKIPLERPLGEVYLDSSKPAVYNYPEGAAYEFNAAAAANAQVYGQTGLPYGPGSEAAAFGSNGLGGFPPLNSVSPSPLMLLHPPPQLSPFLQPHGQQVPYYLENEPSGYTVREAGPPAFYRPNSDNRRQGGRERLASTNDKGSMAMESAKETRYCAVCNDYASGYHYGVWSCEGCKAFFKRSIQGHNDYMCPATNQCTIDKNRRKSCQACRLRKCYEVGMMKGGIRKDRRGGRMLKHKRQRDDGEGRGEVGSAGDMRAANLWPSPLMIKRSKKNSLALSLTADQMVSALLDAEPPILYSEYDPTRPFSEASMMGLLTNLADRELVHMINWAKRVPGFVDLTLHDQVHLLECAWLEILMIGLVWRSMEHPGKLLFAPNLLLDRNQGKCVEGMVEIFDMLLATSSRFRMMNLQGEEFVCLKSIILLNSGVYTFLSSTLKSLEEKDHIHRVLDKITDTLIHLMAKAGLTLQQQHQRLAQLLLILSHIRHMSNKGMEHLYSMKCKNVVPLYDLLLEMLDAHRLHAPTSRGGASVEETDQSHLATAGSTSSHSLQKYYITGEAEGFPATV

[4] = A CellTox Green Cytotoxicity Assay to monitor cytotoxicity in HepG2 cells - 32 hour (AID 1224883); also: nearly all actives have a fitted effect of over 50% in size; also: potency is read from the fitted curve at half-maximal effect
Procedure, shortened: (§1)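 Nonlytic assay: viable cells exclude the dye, so fluorescence scales with cell death. HepG2 at 600 cells/well, compounds added after 5 h, signal read across 40 h.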

[5] = A CellTox Green Cytotoxicity Assay to monitor cytotoxicity in HEK293 cells - 16 hour (AID 1224888); also: nearly all actives have a fitted effect of over 35% in size; also: potency is read from the fitted curve at half-maximal effect
Procedure, shortened: (§2)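 Seeding of HEK293 cells together with cytotoxicity dye preceded a 5 h incubation at 37 C/5% CO2. Test compounds in DMSO were then added and fluorescence monitored across 40 h.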

[6] = qHTS assay for small molecule agonists of the antioxidant response element (ARE) signaling pathway - cell viability counter screen (AID 743203; calls by dose curve; also: nearly all actives have a fitted effect of over 55% in size; also: potency is read from the fitted curve at half-maximal effect); conditions: ARE-bla HepG2 viability, CellTiter-Glo luminescence, 16 h; viability change, negative = cytotoxic: at 73.3 µM (top of the series)
Procedure, shortened: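 Compounds in DMSO were pinned onto ARE-bla HepG2 cells plated 5 hrs earlier at 2,000 cells/well. Sixteen hours later at 37C/5% CO2, CellTiter-Glo was added and luminescence measured after 30 min at room temperature.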

[7] = A CellTox Green Cytotoxicity Assay to monitor cytotoxicity in HepG2 cells - 8 hour (AID 1224890); also: nearly all actives have a fitted effect of over 45% in size; also: potency is read from the fitted curve at half-maximal effect
Procedure, shortened: as §1

[8] = qHTS assay for small molecule activators of the heat shock response signaling pathway - cell viability counter screen (AID 743209); conditions: HSE-bla HeLa viability, CellTiter-Glo luminescence, 5 h; activity change, negative = cytotoxicity: at 62.6 µM (top of the series) unless noted; also: nearly all actives have a fitted effect of over 50% in size
Procedure, shortened: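 Counter screen for cytotoxicity in HeLa HSE-bla reporter cells. Treatment was 5 h at 37 C; viability was detected by luminescent ATP assay (CellTiter-Glo) in the same wells as the beta-lactamase read.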

[9] = Human pregnane X receptor (PXR) small molecule agonists, qHTS cell viability counter screen (AID 1346977); also: nearly all actives have a fitted effect of over 50% in size; also: potency is read from the fitted curve at half-maximal effect
Procedure, shortened: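 PXR-Luc HepG2 cells in medium with 5% charcoal-stripped FBS were pre-incubated 5hr, then exposed to compounds for 24hr at 37C. Viability was read in the same wells by CellTiter-Fluor fluorescence, reagent added after 23hr with a 1hr incubation.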

[10] = test system: thyroid hormone receptor (rat, GH3 cells); assay: qHTS assay to identify small molecule agonists of the thyroid receptor (TR) signaling pathway (AID 743066; calls by dose curve; also: potency is read from the fitted curve at half-maximal effect); conditions: GH3.TRE-Luc cells, TR agonist luciferase, 24 h; activation: at 83.9 µM (top of the series) unless noted
[11] = qHTS assay to identify small molecule antagonists of the glucocorticoid receptor (GR) signaling pathway - cell viability counter screen (AID 720693); conditions: GR-bla HeLa viability, CellTiter-Glo luminescence, 18 h, with 5 nM dexamethasone present; viability change, negative = cytotoxic: at 58.5 µM (top of the series); also: nearly all actives have a fitted effect of over 55% in size
[12] = target: Bile acid receptor (Homo sapiens) (UniProt Q96RI1); assay: qHTS assay to identify small molecule agonists of the farnesoid-X-receptor (FXR) signaling pathway (AID 743220; active = well fitted activation curve with a large enough effect in the signal ratio in the repeat runs, not every such curve was filed as active; inconclusive = weak or mixed curves, or effect the other way; the % refers to the signal ratio); conditions: HEK293T FXR-UAS-bla, beta-lactamase FRET ratio, 16 h; activation: at 62.6 µM (top of the series) unless noted
UniProt Q96RI1, sequence (Q96RI1 whole entry, looked up): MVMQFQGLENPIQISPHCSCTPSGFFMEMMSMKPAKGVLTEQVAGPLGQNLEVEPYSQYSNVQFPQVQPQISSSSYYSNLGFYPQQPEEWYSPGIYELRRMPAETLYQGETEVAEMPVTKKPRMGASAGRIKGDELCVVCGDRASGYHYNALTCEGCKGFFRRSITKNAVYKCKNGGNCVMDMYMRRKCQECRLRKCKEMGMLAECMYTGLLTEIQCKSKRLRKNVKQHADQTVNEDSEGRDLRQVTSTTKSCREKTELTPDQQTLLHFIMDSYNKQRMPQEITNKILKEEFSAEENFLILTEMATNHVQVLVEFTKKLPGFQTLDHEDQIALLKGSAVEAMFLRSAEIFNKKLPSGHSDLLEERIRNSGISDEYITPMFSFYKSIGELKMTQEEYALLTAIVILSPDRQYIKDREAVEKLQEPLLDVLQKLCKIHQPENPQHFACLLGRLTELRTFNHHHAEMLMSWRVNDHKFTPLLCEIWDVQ
Procedure, shortened: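 Beta-lactamase reporter under UAS control in GeneBLAzer FXR HEK 293T cells (5000/well) measured with LiveBLAzer FRET substrate after 2 h at room temperature. Compound exposure lasted 16 h at 37C.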

[13] = qHTS assay to identify small molecule agonists of the TGF-beta/Smad signaling pathway (AID 1346859; active = well fitted activation curve with a large enough effect in the signal ratio in the repeat runs, not every such curve was filed as active; inconclusive = weak or mixed curves; the % refers to the signal ratio)
Procedure, shortened: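 HEK 293T cells stably carrying a beta-lactamase reporter driven by the Smad binding element were seeded overnight, exposed to DMSO-dissolved compounds for 5 hr at 37 C, 5% CO2, then loaded with FRET substrate for 2 hr at room temperature.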

[14] = qHTS assay to identify small molecule phospholipidosis (PLD) inducers (AID 1259344; active = well fitted curve in the direction sought with a large enough effect; inconclusive = small, poorly fitted or top-dose-only effect, or another doubt; inactive = no such curve, though single readings can be large; an effect the other way counts as inactive or inconclusive); conditions: HepG2 phospholipidosis, LipidTOX Red imaging, 24 h; PLD induction: at 38.3 µM (top of the series) unless noted
Procedure, shortened: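 HepG2 cells, 900/well, treated with compound plus LipidTOX Red for 24 h at 37 C; amiodarone positive and DMSO negative controls. Fixed with paraformaldehyde/Hoechst, then high-content imaging scored LipidTOX pit count and integrated intensity per well and per cell.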

[15] = qHTS assay to identify small molecule antagonists of the TGF-beta/Smad signaling pathway (AID 1346924; active = well fitted inhibition curve with a large enough effect in the signal ratio in the repeat runs, not every such curve was filed as active; inconclusive = weak or mixed curves; the % refers to the signal ratio); conditions: SBE-bla HEK293T, TGF-beta/Smad reporter, beta-lactamase ratio; activity, negative = inhibition: at 76.8 µM (top of the series) unless noted
Procedure, shortened: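 SBE-bla HEK 293T cells were plated overnight, then received compound in DMSO plus TGF-beta1 (added as a 0.25 ng/mL solution) and were incubated 5 h at 37 C. Beta-lactamase reporter activity was read after 2 h at room temperature with LiveBLAzer B/G FRET substrate (ex 405, em 460/530 nm).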

[16] = qHTS assay for small molecule disruptors of the mitochondrial membrane potential - cell viability (AID 720634; calls by dose curve; also: nearly all actives have a fitted effect of over 20% in size; also: potency is read from the fitted curve at half-maximal effect;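 as to activity change, negative = cytotoxicity: human HepG2 liver cancer cells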)
Procedure, shortened: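 Measuring cytotoxicity alongside mitochondrial potential, the screen quantified ATP by luminescence in HepG2 cells after 1 hr compound incubation and a 30 min room-temperature CellTiter-Glo step.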

[17] = A CellTox Green Cytotoxicity Assay to monitor cytotoxicity in HEK293 cells - 32 hour (AID 1224881); also: nearly all actives have a fitted effect of over 40% in size; also: potency is read from the fitted curve at half-maximal effect
Procedure, shortened: as §2

[18] = target: Progesterone receptor (Homo sapiens) (UniProt P06401); assay: qHTS assay to identify small molecule agonists of the progesterone receptor (PR) signaling pathway (AID 1346784; calls by dose curve; also: nearly all actives have a fitted effect of over 30% in size; also: potency is read from the fitted curve at half-maximal effect); conditions: PR-UAS-bla HEK293T, beta-lactamase FRET ratio, 16 h; activation: at 92.4 µM (top of the series) unless noted
UniProt P06401, sequence (P06401 whole entry, looked up): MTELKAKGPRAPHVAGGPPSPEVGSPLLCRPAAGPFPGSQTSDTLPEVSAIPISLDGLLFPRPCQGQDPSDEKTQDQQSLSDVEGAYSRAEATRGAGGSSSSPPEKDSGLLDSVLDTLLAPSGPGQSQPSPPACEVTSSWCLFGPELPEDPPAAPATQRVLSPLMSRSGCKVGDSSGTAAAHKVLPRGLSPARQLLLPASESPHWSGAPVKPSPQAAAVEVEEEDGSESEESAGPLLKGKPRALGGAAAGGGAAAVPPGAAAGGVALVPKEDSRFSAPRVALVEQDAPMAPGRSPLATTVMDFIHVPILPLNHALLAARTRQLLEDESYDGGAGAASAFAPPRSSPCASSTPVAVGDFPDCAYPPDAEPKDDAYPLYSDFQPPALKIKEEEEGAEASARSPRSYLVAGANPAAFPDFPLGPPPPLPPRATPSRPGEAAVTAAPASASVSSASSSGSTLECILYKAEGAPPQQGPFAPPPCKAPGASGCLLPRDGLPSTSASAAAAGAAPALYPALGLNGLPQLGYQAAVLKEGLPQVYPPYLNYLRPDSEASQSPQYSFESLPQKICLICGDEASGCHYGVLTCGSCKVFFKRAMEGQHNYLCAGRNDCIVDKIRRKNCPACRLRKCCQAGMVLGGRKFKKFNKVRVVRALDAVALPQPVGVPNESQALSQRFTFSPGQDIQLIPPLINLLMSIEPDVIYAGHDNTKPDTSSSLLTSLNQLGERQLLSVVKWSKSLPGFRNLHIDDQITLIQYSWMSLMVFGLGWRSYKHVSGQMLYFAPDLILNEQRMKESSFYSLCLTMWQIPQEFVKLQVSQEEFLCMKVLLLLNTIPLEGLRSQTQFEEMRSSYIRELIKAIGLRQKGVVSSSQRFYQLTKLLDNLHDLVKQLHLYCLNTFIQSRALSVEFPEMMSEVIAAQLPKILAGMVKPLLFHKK
Procedure, shortened: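 PR-UAS-bla HEK 293T cells carrying a UAS-driven beta-lactamase reporter were seeded in medium with 2% charcoal-stripped FBS, preincubated 6 hr at 37C, then exposed to compounds in DMSO for 16 hr; agonism was read by LiveBLAzer B/G FRET fluorescence.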

[19] = target: Thyrotropin receptor (Homo sapiens) (UniProt P16473); assay: qHTS assay to identify small molecule antagonists of the thyroid stimulating hormone receptor (TSHR) signaling pathway (AID 1259385; calls by dose curve; also: nearly all actives have a fitted effect of over 20% in size); conditions: TSHR-HEK293 cAMP HTRF, TSH-stimulated antagonist mode; activity change, negative = inhibition: at 92.4 µM (top of the series) unless noted
UniProt P16473, sequence (P16473 whole entry, looked up): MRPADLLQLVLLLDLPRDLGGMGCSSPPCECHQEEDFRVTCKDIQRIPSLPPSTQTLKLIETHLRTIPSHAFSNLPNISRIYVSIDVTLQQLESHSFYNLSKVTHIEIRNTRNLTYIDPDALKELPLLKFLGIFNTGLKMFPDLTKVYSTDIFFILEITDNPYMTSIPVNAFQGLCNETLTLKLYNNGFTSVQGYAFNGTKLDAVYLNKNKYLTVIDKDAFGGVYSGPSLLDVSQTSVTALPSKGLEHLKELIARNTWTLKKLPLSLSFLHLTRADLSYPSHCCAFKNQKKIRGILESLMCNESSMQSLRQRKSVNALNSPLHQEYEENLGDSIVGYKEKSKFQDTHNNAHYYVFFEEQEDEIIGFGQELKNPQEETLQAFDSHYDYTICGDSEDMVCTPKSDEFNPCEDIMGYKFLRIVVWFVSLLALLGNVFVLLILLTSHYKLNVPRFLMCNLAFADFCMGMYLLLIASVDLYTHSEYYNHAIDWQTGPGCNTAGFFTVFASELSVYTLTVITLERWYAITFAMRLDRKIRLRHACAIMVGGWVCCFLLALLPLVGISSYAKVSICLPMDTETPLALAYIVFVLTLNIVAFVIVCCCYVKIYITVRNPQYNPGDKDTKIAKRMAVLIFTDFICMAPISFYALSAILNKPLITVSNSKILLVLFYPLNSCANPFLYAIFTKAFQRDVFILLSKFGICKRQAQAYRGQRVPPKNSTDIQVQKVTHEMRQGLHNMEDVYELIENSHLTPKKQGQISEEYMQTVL
Procedure, shortened: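 TSHR-HEK293 cells (800/well) plated 18 h, then compounds with Ro20-1724 and TSH at 1.5 ng/mL final, 30 min at room temperature. cAMP quantified by HTRF (cAMP-d2/anti-cAMP-cryptate, 1 h); 15 concentrations in triplicate.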

[20] = qHTS assay to identify small molecule agonists of the androgen receptor (AR) signaling pathway in the presence of an antagonist - cell viability counter screen (AID 1259379); also: potency is read from the fitted curve at half-maximal effect; nearly all actives have a fitted effect of over 25% in size
Procedure, shortened: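 A CellTiter-Fluor read-out measured viability of MDA-kb2 reporter cells (MMTV promoter with AR and GR response elements). Treatment: nilutamide 3.0uM final with compounds at 15 concentrations, 16 hr, 37C, 0% CO2.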
Tags tell the direction and shape of the fitted curve or compound fluorescence and quenching.

## O=C1c2ccccc2S(=O)(=O)N1CCCCN1CCN(c2ncccn2)CC1
[1]
  Potency: inactive

## N[C@@H](CSCCCO)C(=O)O
[2]
  Potency: inconclusive: 7.56 µM [rising, partial curve]

## Cc1ccc(S(=O)(=O)O)c(C)c1
[3]
  Potency: inactive
[4]
  Potency: inconclusive: 21.9 µM [activator, single point]

## CNC(=S)N(C)C
[5]
  Potency: inconclusive: 9.86 µM [activator, single point]

## CCC(C)(O)CCC=C(C)C (stereo unspecified)
[6]
  Potency: inactive

## CCCc1ccc(O)cc1
[4]
  Potency: inconclusive: 54.9 µM [activator, single point]
[7]
  Potency: inconclusive: 61.7 µM [activator, single point]

## Cc1cc(C)cc([N+](=O)[O-])c1
[8]
  Potency: inactive

## COc1ccc(C(C)=O)cc1
[4]
  Potency: inactive

## CN(C)CCC[C@@]1(c2ccc(F)cc2)OCc2cc(C#N)ccc21
[1]
  Potency: inconclusive: 13.3 µM [cytotoxic]
[9]
  Potency: inconclusive: 21.1 µM [cytotoxic]

## C=CC(=O)OCC1CCCO1 (stereo unspecified)
[10]
  Potency: inconclusive: 68.6 µM [activator, partial curve, poor fit]

## N[C@H]1C(O)O[C@H](CO)[C@H](O)[C@@H]1O (stereo partly specified)
[11]
  Potency: inactive

## COC(=O)/C=C(/C)N
[12]
  Potency: inactive
[5]
  Potency: inconclusive: 1.07 µM [activator, single point]

## CC(C)C(=O)OC(=O)C(C)C
[11]
  Potency: inactive
[10]
  Potency: inactive
[13]
  Potency: inactive

## CCC(CO)(CO)COCC(CC)(CO)CO
[2]
  Potency: inactive
[8]
  Potency: inactive

## COc1cccc(OC)c1
[2]
  Potency: inactive

## Cc1ccccc1N1CCN(CCc2nnc3n2CCCC3)CC1
[10]
  Potency: inactive
[14]
  Potency: inactive

## C=CCCC(=O)O
[15]
  activity, negative = inhibition: inconclusive: 1.92%

## CCCC(=O)C(CC)Sc1ccoc1C (stereo unspecified)
[16]
  Potency: inactive
[17]
  Potency: inconclusive: 61.6 µM [activator, single point]
[4]
  Potency: inconclusive: 15.5 µM [activator, partial curve, poor fit]

## CCCCCCCC[Si](OCC)(OCC)OCC
[7]
  Potency: inactive
[18]
  Potency: inactive

## CC(=O)Nc1ccc(S(N)(=O)=O)cc1
[12]
  Potency: inactive
[7]
  Potency: inactive
[15]
  activity, negative = inhibition: inconclusive: 1.58%

## CCC1(C)CC(=O)NC1=O (stereo unspecified)
[11]
  viability change, negative = cytotoxic: inconclusive: -0.996%
[17]
  Potency: inactive

## N[C@H](C(=O)O)[C@@H](O)c1ccc(O)c(O)c1
[6]
  Potency: inactive
[1]
  Potency: inactive
[19]
  Potency: inactive

## CC(CSC(=O)c1ccccc1)C(=O)N1C[C@@H](Sc2ccccc2)C[C@H]1C(=O)O (stereo partly specified)
[2]
  Potency: inactive

## CC(C)NCC(O)COc1ccc(CCOCC2CC2)cc1 (stereo unspecified)
[5]
  Potency: inactive
[7]
  Potency: inactive

## CC(C)=CC(C)(C)C
[15]
  activity, negative = inhibition: inconclusive: 8.34%

## CCOCC(C)O (stereo unspecified)
[9]
  Potency: inactive

## CS(=O)(=O)c1ccc([C@@H](CC2CCCC2)C(=O)Nc2cnccn2)cc1Cl
[16]
  Potency: active: 34.4 µM
[20]
  Potency: inconclusive: 77 µM [cytotoxic, partial curve, poor fit]

## NC(CCC(=O)O)C(=O)O (stereo unspecified)
[5]
  Potency: inactive

## Cc1ccccc1OCC(O)CO (stereo unspecified)
[19]
  Potency: inactive

## CC(=O)Nc1c(I)cc(I)c(C(=O)O)c1I
[16]
  Potency: inactive
[11]
  viability change, negative = cytotoxic: inconclusive: -1.6%
[6]
  viability change, negative = cytotoxic: inconclusive: 2.92% [cytotoxic]
[15]
  activity, negative = inhibition: inconclusive: -6.99% [at 35.3 µM]

## CCCO[Si](OCCC)(OCCC)OCCC
[2]
  Potency: inactive
[11]
  Potency: inactive
[6]
  Potency: inconclusive: 77 µM [cytotoxic, single point]

## O=[N+]([O-])c1ccccc1C(F)(F)F
[3]
  Potency: inactive
[18]
  Potency: inactive
[9]
  Potency: inactive

## CCn1cc(C(=O)O)c(=O)c2cc(F)c(N3CCN(C)CC3)cc21
[6]
  Potency: inactive
[8]
  Potency: inactive

## C=C(C)C(=O)OCCCCCCCC(C)C
[15]
  activity, negative = inhibition: inconclusive: 12.1%
[9]
  Potency: active: 0.976 µM

## COC(/C=C(\C)CCC=C(C)C)OC
[5]
  Potency: inconclusive: 0.49 µM [activator, single point]
[18]
  Potency: inconclusive: 77 µM [rising, single point]

## CC(C)CCOC(=O)CC(C)C
[3]
  Potency: inactive
[17]
  Potency: inconclusive: 54.9 µM [activator, single point]
[5]
  Potency: inconclusive: 54.9 µM [activator, single point]
